# Source: the supplement of paper PMC3334620
# In all, about 33,000 sequences were measured (“E-score (-0.5 to 0.5)”: median about -0.035, highest 2% from about 0.34 on). This is one part of the list.
# Biological target: T1, Mot3 (UniProt P54785)
# T1 sequence: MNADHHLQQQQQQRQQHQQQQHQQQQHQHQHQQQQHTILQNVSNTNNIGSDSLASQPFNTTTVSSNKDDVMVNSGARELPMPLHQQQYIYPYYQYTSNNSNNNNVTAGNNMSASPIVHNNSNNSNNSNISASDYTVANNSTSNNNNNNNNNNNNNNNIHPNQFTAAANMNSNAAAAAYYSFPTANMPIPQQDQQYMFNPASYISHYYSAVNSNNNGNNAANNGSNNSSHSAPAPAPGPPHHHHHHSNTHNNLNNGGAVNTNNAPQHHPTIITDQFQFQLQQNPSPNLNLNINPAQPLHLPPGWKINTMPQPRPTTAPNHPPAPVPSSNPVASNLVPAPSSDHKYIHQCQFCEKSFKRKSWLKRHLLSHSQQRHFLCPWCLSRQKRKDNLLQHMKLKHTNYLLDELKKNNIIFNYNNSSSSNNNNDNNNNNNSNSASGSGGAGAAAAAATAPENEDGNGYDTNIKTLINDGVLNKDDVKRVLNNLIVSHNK
# Experiment: PBM E-score (8-mer binding enrichment) (E-score (-0.5 to 0.5)); higher = stronger / more preferred TF binding; most listed sequences are background and not binding sites
# Conditions: protein concentration: 200 nM; construct: GST-full length
# Method in brief: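 Each ungapped eight-base word and its reverse complement, pooled, received an E-score from the Universal PBM Analysis Suite. Underlying scans, normalised with masliner, recorded fluorescent anti-GST bound to GST-tagged yeast transcription factors. These were applied at about 100-200 nM to universal all-10-mer Agilent arrays double-stranded by primer extension.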
row,Sequence,PBM E-score
1,CACGGTTA,0.183
2,GAATCACA,0.0103
3,CCCCCTTA,-0.27
4,AGCTTGAC,-0.129
5,CCCTACTC,-0.108
6,AATCTACA,0.349
7,AGTGACAC,0.192
8,ACGAAGGG,-0.0163
9,TACTTTCA,0.0677
10,CCGTCACA,-0.253
11,CAATCGTC,0.0563
12,CTTACATA,0.319
13,ACGTAGGC,0.271
14,AGATACCG,0.0845
15,ACCTTAGG,0.178
16,GGCGTTAC,0.0882
17,AGCGGAGG,0.0481
18,CTTGGCTC,-0.253
19,AAAGCTCT,-0.185
20,AACCTATC,-0.03
21,AAGGTCCA,-0.138
22,GTGTTGAA,0.317

row,Sequence,PBM E-score
1,ATTGAATG,-0.0786
2,GACCGATC,-0.226
3,CGCAGACG,-0.094
4,CAAGTACG,0.0271
5,ATCCTGCA,0.0998
6,AGTCCTCA,-0.231
7,CATAGGTC,-0.0819
8,GGGCCCCA,-0.3
9,AGAAGCCC,-0.158
10,CGCTTAAC,0.133
11,CAGACGAG,-0.27
12,ATTCGCGC,0.085
13,CCGTCGTC,-0.322
14,GGGCCACA,-0.367
15,CCGCGCAG,-0.216
16,CCGTATCG,-0.201
17,CGCTATAA,-0.0574
18,TCGGGTCA,-0.148
19,AGCCAGTG,-0.232
20,AAGCGTGT,0.297
21,ATCCGCCG,0.013
22,AGTTGTTA,0.122

row,Sequence,PBM E-score
1,AAAAGTGG,-0.0411
2,ACAATGTC,0.047
3,CCCTGCGG,-0.171
4,AACACTCT,0.121
5,ATTACTCA,0.165
6,ACTATGCC,0.0451
7,AGTACTAT,0.0238
8,CCAAATGC,-0.141
9,CAGTCAAA,-0.043
10,TATGGCGA,-0.321
11,CCCGATGA,-0.0598
12,ATAGAGAA,-0.011
13,CAATGCAG,0.0208
14,AGATAAGA,0.00264
15,AGCGCAGC,-0.26
16,CTTACAGA,-0.041
17,CTAATCGA,-0.0302
18,AATACCGA,-0.0843
19,ACTCTGAA,-0.0422
20,CGTGACTA,0.25
21,CGAGACGC,-0.0947
22,AATACATT,0.235

row,Sequence,PBM E-score
1,AGTTAACC,0.117
2,AGGAGCAT,0.178
3,CACTTGAA,0.105
4,AAACGCTT,0.00673
5,TCTTAACA,0.346
6,CGCATAGA,-0.00099
7,ACTCCAAG,-0.0115
8,ACGGTAAA,0.0714
9,TAAAGTGA,0.0617
10,GCCCTAGC,-0.184
11,CATATTTA,0.178
12,AAGATAAT,0.116
13,CCGCGGTC,-0.2
14,GCGGTCAA,-0.0964
15,GAAGTGCA,-0.127
16,AGTGGGGC,-0.303
17,TTTGCAAA,-0.00928
18,GTCTAGCA,-0.0517
19,TCACGTCA,-0.0046
20,CCCTCGAG,-0.156
21,AGTTGCGA,-0.0454
22,ACCTGCAG,0.174

row,Sequence,PBM E-score
1,AACTGTCA,-0.128
2,CATCTCGC,-0.229
3,AGCTAGTC,-0.156
4,AAAAACGC,0.18
5,AGATGACG,0.0401
6,AGAGCGAC,-0.22
7,CCTATGAG,-0.0641
8,AAGACGTC,-0.264
9,GAGTTGCC,0.161
10,ACAATGCG,0.0638
11,ACAGTGTA,0.161
12,ACCCTTGA,-0.314
13,ACGTTAAG,0.173
14,ACTGATAG,-0.0844
15,TGCCACCA,-0.262
16,AGTAGGAC,-0.258
17,CGTTCTCC,-0.0473
18,AGATCAGA,-0.13
19,CGGATACC,-0.0192
20,ACCTAAGC,0.0128
21,AATCTAGA,0.00627
